Laboratory results from patent US20250230211A1 (NANTCELL, published 2025).

T1: IL-2Rβ (UniProt P14784 27-240, limits assumed)
T1 construct: also called IL2RB
T1 sequence (looked up): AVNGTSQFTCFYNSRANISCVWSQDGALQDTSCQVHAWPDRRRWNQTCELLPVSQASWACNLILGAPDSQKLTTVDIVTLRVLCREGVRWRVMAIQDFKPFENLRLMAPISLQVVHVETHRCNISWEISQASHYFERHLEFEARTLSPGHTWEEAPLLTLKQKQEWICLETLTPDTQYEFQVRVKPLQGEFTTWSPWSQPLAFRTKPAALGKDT

T2: human CTLA4 (human, UniProt P16410 36-161)
T2 sequence (looked up): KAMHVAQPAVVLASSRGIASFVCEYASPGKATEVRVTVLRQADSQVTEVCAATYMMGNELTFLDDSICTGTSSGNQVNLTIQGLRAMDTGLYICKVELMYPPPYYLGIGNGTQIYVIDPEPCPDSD


Assays:
Assay in all cases: SPR, fusion protein captured by anti-human IgG Fc, analyte by OneStep injection at 40 nM and 20 nM
[1] = biological target: T1, IL-2Rβ
Protocol: (§1) Surface plasmon resonance (SPR) studies were conducted with the purified fusion proteins to assess their binding affinities to relevant targets. The SPR kinetic assay was performed by immobilizing rabbit α-human IgG Fc antibodies (Thermo) on a PCH sensor (Sartorius) as the capture molecule. All molecules of interest were then captured on the sensor surface by α-IgG1-Fc and Fc domain interaction. Binding kinetics against IL-2Rβ, human CTLA4, and murine CTLA4 were determined by OneStep injection at 40 nM and 20 nM of each analyte. […] The αCTLA4-scFv has higher affinity to CTLA4 than when the binding domain is in IgG form.

[2] = biological target: T3, murine CTLA4 (murine, UniProt P09793 36-161, limits assumed)
T3 construct: also called Mouse CTLA4
Protocol: as §1

[3] = biological target: T2, human CTLA4
Protocol: as §1

Row | Binder | Kd [1] | Kd [2] | Kd [3]
1 | nogapendekin alfa-imbakicept (N-803) (Fc fusion, also called NAI; ALT-803) chain 1: [sequence of about 120 residues omitted] chain 2: ITCPPPMSVEHADIWVKSYSLYSRERYICNSGFKRKAGTSSLTECVLNKATNVAHWTTPSLKCIR[sequence of human IgG1 Fc with changes omitted] | 1.8 to 2 nM | – | –
2 | αCTLA4/TxM-A (N-844-1) (Fc fusion) chain 1: DIQMTQSPSSLSASVGDRVTITCQASQDISNYLNWYQQKPGKAPKLLIYDASNLETGVPSRFSGSGSGTDFTFTISSLQPEDIATYYCQQGDAWPWTFGQGTKVEIKGGGGSGGGGSGGGGSEVQLVESGGGLVQPGGSLRLSCAASGFTFTSYSMHWVRQAPGKGLEWVSGISGSGRSTSYADSVKGRFTISRDNSKNTLYLQMNSLRAEDTAVYYCARDLMAFNLVRAGGFDVWGQGTLVTVSSITCPPPMSVEHADIWVKSYSLYSRERYICNSGFKRKAGTSSLTECVLNKATNVAHWTTPSLKCIR[sequence of human IgG1 Fc with changes omitted] chain 2: [sequence of about 120 residues omitted] | 1.5 nM | 0.1 nM | 0.3 to 0.6 nM
3 | αCTLA4/TxM-B (N-844-2) (Fc fusion) chain 1: DIQMTQSPSSLSASVGDRVTITCQASQDISNYLNWYQQKPGKAPKLLIYDASNLETGVPSRFSGSGSGTDFTFTISSLQPEDIATYYCQQGDAWPWTFGQGTKVEIKGGGGSGGGGSGGGGSEVQLVESGGGLVQPGGSLRLSCAASGFTFTSYSMHWVRQAPGKGLEWVSGISGSGRSTSYADSVKGRFTISRDNSKNTLYLQMNSLRAEDTAVYYCARDLMAFNLVRAGGFDVWGQGTLVTVSSGGGGSGGGGSGGGGS[sequence of about 120 residues omitted] chain 2: ITCPPPMSVEHADIWVKSYSLYSRERYICNSGFKRKAGTSSLTECVLNKATNVAHWTTPSLKCIR[sequence of human IgG1 Fc with changes omitted] | 3.1 nM | 0.1 to 0.2 nM | 0.1 to 0.9 nM
4 | αCTLA4/TxM-C (N-844-3) (Fc fusion) chain 1: ITCPPPMSVEHADIWVKSYSLYSRERYICNSGFKRKAGTSSLTECVLNKATNVAHWTTPSLKCIR[sequence of human IgG1 Fc with changes omitted]GGGGSGGGGSGGGGSDIQMTQSPSSLSASVGDRVTITCQASQDISNYLNWYQQKPGKAPKLLIYDASNLETGVPSRFSGSGSGTDFTFTISSLQPEDIATYYCQQGDAWPWTFGQGTKVEIKGGGGSGGGGSGGGGSEVQLVESGGGLVQPGGSLRLSCAASGFTFTSYSMHWVRQAPGKGLEWVSGISGSGRSTSYADSVKGRFTISRDNSKNTLYLQMNSLRAEDTAVYYCARDLMAFNLVRAGGFDVWGQGTLVTVSS chain 2: [sequence of about 120 residues omitted] | 1.3 nM | 0.3 to 1.1 nM | 1.7 to 3.9 nM
